# In the supplement of paper PMC12217912:
# The other results are listed elsewhere or left out. Sequences were assembled here from the parent chain. Values near 0.05 are background.
# B1: TEV protease; numbered along this chain (parent)
# chain: MGESLFKGPRDYNPISSSICHLTNESDGHTTSLYGIGFGPFIITNKHLFRRNNGTLVVQSLHGVFKVKDTTTLQQHLVDGRDMIIIRMPKDFPPFPQKLKFREPQREERICLVTTNFQTKSMSSMVSDTSCTFPSGDGIFWKHWIQTKDGQCGSPLVSTRDGFIVGIHSASNFTNTNNYFTSVPKNFMELLTNQEAQQWVSGWRLNADSVLWGGHKVFMVKPEEPFQPVKEATQL
# Variants of: B1
# Assay: raw area under fraction-flipped curve 0-4 h after induction (AUC4h, not background-subtracted), DNA-recorder readout of cleavage of the substrate (dimensionless); higher = more cleavage of the substrate by the protease variant
# Conditions: temperature: 34 °C; time window: 0-4 h after rhamnose induction
# Method: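 In vivo DNA recorder in E. coli TOP10(DE3) ΔrhaA at 34 °C. Each TEVp single-site mutant (parent TEVp 0) is paired with a single-site variant of the 7-mer TEVs (canonical ENLYFQ|S). The substrate sits between flexible linkers in a Bxb1-sfGFP-TEVs-SsrA fusion, so cleavage stabilises Bxb1 and speeds flipping of a recombination array, read by NGS. The value is the raw area under the fraction-flipped curve over 0-4 h after rhamnose induction (AUC4h), with ≥20 reads per time point. It is not background-subtracted; inactive controls average about 0.047.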
# 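Further: Bxb1 expression induced with 0.2% (w/v) L-rhamnose at OD600 near 0.5, cultures sampled hourly, flipped fraction per protease–substrate barcode pair counted by paired-end Illumina sequencing.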
Variant,area with substrate EALYFQS,area with substrate ECLYFQS,area with substrate EDLYFQS,area with substrate EILYFQS,area with substrate ELLYFQS,area with substrate EMLYFQS,area with substrate EPLYFQS,area with substrate EQLYFQS,area with substrate ERLYFQS,area with substrate ESLYFQS,area with substrate EVLYFQS,area with substrate EWLYFQS,area with substrate EELYFQS,area with substrate EFLYFQS,area with substrate EGLYFQS,area with substrate EHLYFQS,area with substrate EKLYFQS,area with substrate EYLYFQS,area with substrate ETLYFQS
MGESLFKGPRDYNPISSSICHLTNESDGHTTSLYGIGFGPFIITNKHLFRRNNGTLVVQSLHGVFKVKDTTTLQQHLVDGRDMIIIRMPKDFPPFPQKLKFREPQREERICLVTTNFQTVSMSSMVSDTSCTFPSGDGIFWKHWIQTKDGQCGSPLVSTRDGFIVGIHSASNFTNTNNYFTSVPKNFMELLTNQEAQQWVSGWRLNADSVLWGGHKVFMVKPEEPFQPVKEATQL [K120V],0.11,0.0871,0.103,0.112,0.0887,0.0862,0.129,0.105,0.0988,0.103,0.0807,0.0772,–,–,–,–,–,–,–
MGESLFKGPRDYNPISSSICHLTNESDGHTTSLYGIGFGPFIITNKHLFRRNNGTLVVQSLHGVFKVKDTTTLQQHLVDGRDMIIIRMPKDFPPFPQKLKFREPQREERICLVTTNFQTKSMSSMVSDTSCTFPSGDGIFWKHWIQTKDGQCGSPLVSTRDGFIVGIHSASNFTNTNNYFTSVPKNFMELLTNQEAQQWVDGWRLNADSVLWGGHKVFMVKPEEPFQPVKEATQL [S201D],0.0785,0.0696,0.084,0.0518,0.0843,0.0764,0.0893,0.084,0.0862,0.0754,0.0604,–,0.0832,0.091,0.0809,0.0663,0.0736,0.0715,–
MGESLFKGPRDYNPISSSICHLTNESDGHTTSLYGIGFGPFIITNKHLFRRNNGTLVVQSLHGVFKVKDTTTLQQHLVNGRDMIIIRMPKDFPPFPQKLKFREPQREERICLVTTNFQTKSMSSMVSDTSCTFPSGDGIFWKHWIQTKDGQCGSPLVSTRDGFIVGIHSASNFTNTNNYFTSVPKNFMELLTNQEAQQWVSGWRLNADSVLWGGHKVFMVKPEEPFQPVKEATQL [D79N],0.147,–,0.15,0.103,–,0.0919,0.117,–,–,–,0.0815,–,0.104,–,–,0.104,0.104,–,–
MGESLFKGPRDYNPISSSICHLTNESDGHTTSLYGIGFGPFIITNKHLFRRNNGTLVVQSLHGVFKVKDTTTLQQHLVDGRDMIIIRMPKDFPPFPQKLKFREPQREERICLVTTNFQTKSMSSMVSDTSCTFPSGDGIFWKHWIQTKDGQCGSPLVSTRDGFIVGIHSASNFTNTNNYFTSVPKNFMELLTNQEAQQWVSGWRLNADSVLWGGHKVFMVKPEEPFQPVKWATQL [E231W],0.122,0.0806,0.134,0.0812,–,0.0704,0.106,0.091,0.091,0.0994,0.0804,–,–,–,0.0994,–,0.0879,–,0.0854
MGESLFKGPRDYNPISSSGCHLTNESDGHTTSLYGIGFGPFIITNKHLFRRNNGTLVVQSLHGVFKVKDTTTLQQHLVDGRDMIIIRMPKDFPPFPQKLKFREPQREERICLVTTNFQTKSMSSMVSDTSCTFPSGDGIFWKHWIQTKDGQCGSPLVSTRDGFIVGIHSASNFTNTNNYFTSVPKNFMELLTNQEAQQWVSGWRLNADSVLWGGHKVFMVKPEEPFQPVKEATQL [I19G],0.0855,0.0741,0.106,0.0721,0.0699,–,0.0909,0.0933,0.0278,0.0758,0.0751,0.0686,0.0756,0.0831,0.0804,0.0902,0.0804,0.0587,0.0711
MGESLFKGPRDYNPISSSICHLTNESDGHTTSLYGIGFGPFIITNKHLFRRNNGTLVVQSLHGVFKVKDTTTLQQHLVDGRDMIIIRMPKDFPPFPQKLKFREPQREERICLVTTNFQTKSMSSMVSDTSCTFPSGDGIFWKHWIQTKDGQCGSPLVSTQDGFIVGIHSASNFTNTNNYFTSVPKNFMELLTNQEAQQWVSGWRLNADSVLWGGHKVFMVKPEEPFQPVKEATQL [R160Q],0.127,0.151,0.112,0.0958,0.0678,–,0.133,0.144,–,0.0915,0.109,0.112,–,–,0.103,–,0.128,–,0.101
MGESLFKGPRDYNPISSSICHLTNESDGHTTSLYGIGFGPFIITNKHLFRRNNGTLVVQSLHGVFKVKDTTTLQQHLVDGRDMIIIRMPKDFPPFTQKLKFREPQREERICLVTTNFQTKSMSSMVSDTSCTFPSGDGIFWKHWIQTKDGQCGSPLVSTRDGFIVGIHSASNFTNTNNYFTSVPKNFMELLTNQEAQQWVSGWRLNADSVLWGGHKVFMVKPEEPFQPVKEATQL [P96T],0.0879,0.0814,–,–,–,0.0814,–,0.102,0.0601,0.0964,–,–,0.131,–,–,–,–,–,–
MGESLFKGPRDYNPISSSICHLTNESDGHTTSLYGIGFGPFSITNKHLFRRNNGTLVVQSLHGVFKVKDTTTLQQHLVDGRDMIIIRMPKDFPPFPQKLKFREPQREERICLVTTNFQTKSMSSMVSDTSCTFPSGDGIFWKHWIQTKDGQCGSPLVSTRDGFIVGIHSASNFTNTNNYFTSVPKNFMELLTNQEAQQWVSGWRLNADSVLWGGHKVFMVKPEEPFQPVKEATQL [I42S],0.0537,0.0469,0.0414,0.0531,0.0487,–,0.0563,0.041,0.0469,0.0491,0.0442,0.0449,0.0399,0.049,0.0364,0.0598,0.0427,–,0.0515
MGESLFKGPRDYNPISSSICHLTNESDGHTTSLYGIGFGPFIITNKHLFRRNNGTLVVQSLHGVFKVKDTTTLQQHLVDGRDMIIIRMPKDFPPFPQKLKFREPQREERICLVTTNFQTKSMSSMVSDTSCTFPSGDGIFWKHWIQTKDGQCGSPLVSTRDGFIVGIHSASNFTNTNNYFTSVPKNFMELLTNQEAQQWVSGWRLFADSVLWGGHKVFMVKPEEPFQPVKEATQL [N206F],0.096,0.0852,0.0828,0.0822,0.073,0.087,0.1,0.0861,0.0831,0.0887,0.0902,–,0.1,0.0863,0.0867,0.0833,0.0524,0.0924,–
